# Source: the supplement of paper PMC10126150
# Values marked as one replicate rest on one cluster of the flow cell; about a third of the high ones do not repeat.
# Test system: ATP
# Assay: switch fluorescence ratio, 500 uM ATP over buffer (Cy3 cluster intensity, sum of 5 cycles each) (fold (ratio)); higher = stronger signal-on switching upon ATP binding; sequences stand for … in TCGTCGGCAGCGTCAGATGTGTATAAGAGACAGTTTTTTTTTTTTTTTTTTTTTTTTT…TC
# Details: aptamer strand: ATP DNA aptamer (quencher-CACCTGGGGGAGTATTGCGGAGGAAGG + anchor), 100 nM annealed; ATP concentration: 500 uM; one replicate
# Procedure, shortened: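 The quencher-labelled ATP aptamer, at 100 nM, was annealed to Cy3-labelled switching-strand clusters on a modified Illumina MiSeq flow-cell. The clusters were imaged in selection buffer, then after 15 min with 500 uM ATP at 22 °C, and this buffer/ATP cycle ran five times with NaOH stripping and re-annealing between runs. Per-cluster fluorescence ratios, summed target-cycle over summed buffer-cycle Cy3 intensity, were averaged per switch-domain sequence. Clusters outside 100-1000 RFU were excluded.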
# 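Also: ATP exposure 15 min at 22 °C before imaging.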
sequence,measurement,value
GGCGGCTCAC,switch fluorescence ratio,1.04
TTGTTAGGAG,switch fluorescence ratio,0.98
TCCCGCCCC,switch fluorescence ratio,1.73
TTCGCTGTGG,switch fluorescence ratio,0.991
TGATACTTAT,switch fluorescence ratio,0.959
GTAAGAAAGG,switch fluorescence ratio,0.944
GACAGGTTGG,switch fluorescence ratio,0.988
AGCCTGCAAG,switch fluorescence ratio,0.976
CCTTCCGAGT,switch fluorescence ratio,4.05
TAACCACAT,switch fluorescence ratio,1.03
GCAACTAGGG,switch fluorescence ratio,1.02
GCTGTCGCC,switch fluorescence ratio,1.01
TTCCGACCTG,switch fluorescence ratio,1.03
ATAAATACGG,switch fluorescence ratio,0.979
ACAATTTAAC,switch fluorescence ratio,1.04
TTTTAGGTTG,switch fluorescence ratio,0.984
CAAGGAGAGT,switch fluorescence ratio,0.987
GAAGCAGGCG,switch fluorescence ratio,1.05
TCTATCAAAA,switch fluorescence ratio,1.04
TTAAACCGAA,switch fluorescence ratio,1.12
CCTTGCCCC,switch fluorescence ratio,1.17
TTAACAAGTG,switch fluorescence ratio,0.956
CAGTGTGGAG,switch fluorescence ratio,1.04
GCCCAAAACC,switch fluorescence ratio,1.09
TATTGATTGC,switch fluorescence ratio,0.999
AGTGACGCGC,switch fluorescence ratio,1.05
ATCTATGG,switch fluorescence ratio,0.995
GTAATTACCT,switch fluorescence ratio,1.12
CGAGAAATCT,switch fluorescence ratio,1.05
ACTACGGCAG,switch fluorescence ratio,1.08
CGCTCAAGCG,switch fluorescence ratio,0.979
ACGTTCGAT,switch fluorescence ratio,1.04
ATTCTTCTTT,switch fluorescence ratio,1.01
AAATGGCAGC,switch fluorescence ratio,1.04
GAAGGAAAGG,switch fluorescence ratio,1.05
CCTTTATGA,switch fluorescence ratio,0.969
TGTAGACGTG,switch fluorescence ratio,1.01
CCGTACACGG,switch fluorescence ratio,0.951
GGATGGCCGA,switch fluorescence ratio,0.988
TCGTGGTT,switch fluorescence ratio,0.973
TTAGACGATG,switch fluorescence ratio,1.04
GCCCTAGGGT,switch fluorescence ratio,1.09
AAGGGGGGT,switch fluorescence ratio,0.998
CCGGGGCAGG,switch fluorescence ratio,1.16
GGATCATAGC,switch fluorescence ratio,0.979
AGATGAACG,switch fluorescence ratio,1.04
TCTTTCCATG,switch fluorescence ratio,1.03
GAGTCATTGA,switch fluorescence ratio,0.975
CGGTTCGGCA,switch fluorescence ratio,0.973
GTTGATCGGG,switch fluorescence ratio,0.971
TTTTGTCAGC,switch fluorescence ratio,1.02
CTTTTCTGAA,switch fluorescence ratio,1.01
CGCTGGTAGG,switch fluorescence ratio,1.01
CATAGGTGCC,switch fluorescence ratio,1.13
TAAATGGTGT,switch fluorescence ratio,0.982
AGAGGCAGTA,switch fluorescence ratio,1.1
GGGGCACGGA,switch fluorescence ratio,0.977
CAGGTGTTG,switch fluorescence ratio,1.32
CGAGCTGGG,switch fluorescence ratio,0.994
AGCAGGCGGG,switch fluorescence ratio,1.01
AATGTGCTAT,switch fluorescence ratio,1.04
TTATAGAGCA,switch fluorescence ratio,0.961
AGAGCAGGA,switch fluorescence ratio,0.966
TGTCAGTTCG,switch fluorescence ratio,1.04
GCGCTTTGTA,switch fluorescence ratio,1.03
TGAAAACTCT,switch fluorescence ratio,1.02
CGAGCGGGTG,switch fluorescence ratio,1.1
AAGTGGAGAC,switch fluorescence ratio,0.994
TACGAAATT,switch fluorescence ratio,1.01
TAGACCGAAG,switch fluorescence ratio,0.974
GTAGATGCTG,switch fluorescence ratio,1.04
CTGCAGTAGC,switch fluorescence ratio,2.43
CCGTCGTCCT,switch fluorescence ratio,1.04
AAAATTTCAC,switch fluorescence ratio,0.981
TTCGGTATGG,switch fluorescence ratio,0.981
CACTCGGATT,switch fluorescence ratio,0.996
TTGAGACATG,switch fluorescence ratio,1.02
GGGATAGGTG,switch fluorescence ratio,1.11
ACTACTGCGA,switch fluorescence ratio,1.44
CGCTGCACCG,switch fluorescence ratio,0.99
TCCGTGGGCC,switch fluorescence ratio,1.04
ACTCGTGTTG,switch fluorescence ratio,0.983
CTCGTCAAC,switch fluorescence ratio,1.34
CACTGTAGCT,switch fluorescence ratio,1.2
AAGTGAGTGT,switch fluorescence ratio,0.99
GACAGTAATT,switch fluorescence ratio,1.03
GTATAGGCTA,switch fluorescence ratio,0.984
TCTTGCGGGC,switch fluorescence ratio,1.04
GTCGTGCTTG,switch fluorescence ratio,0.993
TTCACTGCAC,switch fluorescence ratio,1.69
TACATTGTC,switch fluorescence ratio,0.883
CAGCGGCGTG,switch fluorescence ratio,0.948
TGATGTGTAT,switch fluorescence ratio,1.03
CAACCCAATA,switch fluorescence ratio,1.96
CCGATAGTTA,switch fluorescence ratio,1.16
GCTTCGCGGC,switch fluorescence ratio,2.89
GTTGCTGAGA,switch fluorescence ratio,0.987
AGGTAATTAC,switch fluorescence ratio,0.966
GCTTGAGACG,switch fluorescence ratio,1.09
TAGATCTGTG,switch fluorescence ratio,0.966
TCGGAACCTA,switch fluorescence ratio,1.03
GGGAAAGCGG,switch fluorescence ratio,0.984
ATCATGTCCG,switch fluorescence ratio,0.944
TTGGCCGTAT,switch fluorescence ratio,1.19
TTCAGTCCAG,switch fluorescence ratio,0.982
ACGCTAGAAT,switch fluorescence ratio,1.07
GAGAAAAGC,switch fluorescence ratio,0.998
CGGGTTCGTT,switch fluorescence ratio,0.995
CACACTCCCT,switch fluorescence ratio,1.52
GAGTAGTTAG,switch fluorescence ratio,1.01
CTAGAGATCT,switch fluorescence ratio,0.969
TGAATTGTGT,switch fluorescence ratio,0.953
AGCCTGCACC,switch fluorescence ratio,1.03
TCGCTGCGGT,switch fluorescence ratio,1.04
ATTCAACGG,switch fluorescence ratio,1.05
CTCGTATGGT,switch fluorescence ratio,0.966
TCATTTGCCA,switch fluorescence ratio,1.08
AGACGAGAAA,switch fluorescence ratio,0.976
ATGTGAGTTG,switch fluorescence ratio,1.01
TAGTGGTCGT,switch fluorescence ratio,1.02
ATTTCATTTG,switch fluorescence ratio,1.06
GCAAGAGGGA,switch fluorescence ratio,1
TTTTCCTTGG,switch fluorescence ratio,0.999
AGTCGTGGAA,switch fluorescence ratio,0.998
GATACCCTAG,switch fluorescence ratio,1.07
TTCCCGGCTT,switch fluorescence ratio,1.01
TTCATTACCG,switch fluorescence ratio,0.951
GGTAAGCGAG,switch fluorescence ratio,0.98
TGGTAATTCC,switch fluorescence ratio,1.05
TACGGGTAAC,switch fluorescence ratio,1.02
GGGAATTATT,switch fluorescence ratio,0.983
TGTTAAAGTA,switch fluorescence ratio,0.958
CGGGTTTATT,switch fluorescence ratio,0.996
GAGTATTCCC,switch fluorescence ratio,1.01
TTGCTCCGTT,switch fluorescence ratio,1.68
AGACAATCTT,switch fluorescence ratio,1.03
CAACTTCCCT,switch fluorescence ratio,1.05
ATTTAACTGT,switch fluorescence ratio,1.02
TGAACACTGC,switch fluorescence ratio,1.06
CGCATGCCAT,switch fluorescence ratio,0.979
TTCCGGTAT,switch fluorescence ratio,1.73
ACGAATTAC,switch fluorescence ratio,2.44
TTGACAAAAG,switch fluorescence ratio,1.07
AATTTCAAAA,switch fluorescence ratio,0.995
AGTCAGCGC,switch fluorescence ratio,1.02
AAAGTAAATC,switch fluorescence ratio,0.998
GTAAGTGTGG,switch fluorescence ratio,0.99
GATGTTAGTC,switch fluorescence ratio,1.01
CGAAGTATTC,switch fluorescence ratio,1.25
TCAACGGCCG,switch fluorescence ratio,1.05
AGATATTAAG,switch fluorescence ratio,0.978
CAGAGCGCCT,switch fluorescence ratio,1.03
AGGAATACGA,switch fluorescence ratio,2.35
CCGTGTACGA,switch fluorescence ratio,1.16
TATAGGACGG,switch fluorescence ratio,1.01
TTTGGCCGAC,switch fluorescence ratio,1.04
ATTTCTCGAT,switch fluorescence ratio,0.987
GGGTTTGTCT,switch fluorescence ratio,0.991
CTCAATGCTT,switch fluorescence ratio,1.1
TAAGTCTCCA,switch fluorescence ratio,1.02
AATATTTAAT,switch fluorescence ratio,0.951
TGTTGTGTCT,switch fluorescence ratio,1.01
AGATCTGTAT,switch fluorescence ratio,0.972
ACGTCAATGG,switch fluorescence ratio,1.94
AGCCTCCTAA,switch fluorescence ratio,1.14
CGCCGAGTTA,switch fluorescence ratio,1.01
AGAAGCATC,switch fluorescence ratio,0.989
CTGTAGAGGT,switch fluorescence ratio,0.972
TTCGAGAATA,switch fluorescence ratio,1
GTTTAGGCAG,switch fluorescence ratio,0.993
GTATGGTTAC,switch fluorescence ratio,0.969
AGATAGCTTA,switch fluorescence ratio,1
TGTGTATTGA,switch fluorescence ratio,1.01
GGCTCTATTG,switch fluorescence ratio,0.963
TGACTAGTGT,switch fluorescence ratio,1.02
AGACATGAGG,switch fluorescence ratio,1
AATCTGATAG,switch fluorescence ratio,1.01
CAAAGGGCTG,switch fluorescence ratio,0.992
TGTTGCATAT,switch fluorescence ratio,0.987
GTGGATGTTG,switch fluorescence ratio,0.997
ATCTTCGAGG,switch fluorescence ratio,0.998
ACCTTTATTC,switch fluorescence ratio,1.05
CTGGGATAGC,switch fluorescence ratio,0.972
GATCGAGAAG,switch fluorescence ratio,1.01
TTCAGTCGCG,switch fluorescence ratio,0.964
GGCGCCTTGA,switch fluorescence ratio,0.953
GGGATGGGTG,switch fluorescence ratio,1.04
CGTCGGATTC,switch fluorescence ratio,1.03
CTGTTATAGG,switch fluorescence ratio,0.996
TCCGTCCTTT,switch fluorescence ratio,0.975
TTGTACTCTG,switch fluorescence ratio,1.05
ACGGAC,switch fluorescence ratio,1.39
CTTGTTAGGT,switch fluorescence ratio,0.986
TAGTGAGGTA,switch fluorescence ratio,1.02
AGGGTTTG,switch fluorescence ratio,0.984
CTAAATTTCG,switch fluorescence ratio,1.06
CGCGGTGTAG,switch fluorescence ratio,0.989
CCTGGGGATG,switch fluorescence ratio,1.02
TTAATTACAT,switch fluorescence ratio,1.02
GGCCCGGTT,switch fluorescence ratio,1.01
GCATAATGAC,switch fluorescence ratio,1.17
